# Data taken from PubChem BioAssay AID624172 (National Center for Advancing Translational Sciences (NCATS), 2012).
# The campaign covered roughly 380,000 compounds. About 25 (0.007%) were called active. The shares of active, inactive and inconclusive entries below differ from those in the screen. The call rests on the fitted dose curve; in most records, active means well fitted activation curve with a large enough effect; inconclusive means small, poorly fitted or top-dose-only effect; inactive means no such curve, though single readings can be large or run the other way. Potencies of inconclusive entries are left out as doubtful fits.
# Target: Glucagon-like peptide 1 receptor (Homo sapiens) (UniProt P43220)
# Assay: qHTS of GLP-1 Receptor Agonists; on activation: % of control where 0% means no effect
# Conditions: HEK293 GLP-1R CRE-luciferase, luminescence, 4-6 h, cells express a hypersensitive GLP-1R form; activation: at 45.6 µM (top of the series) unless noted
# Potency means the concentration at half of the fitted maximal effect; tags describe the fitted curve by direction and shape.
# UniProt P43220, sequence (P43220 whole entry, looked up): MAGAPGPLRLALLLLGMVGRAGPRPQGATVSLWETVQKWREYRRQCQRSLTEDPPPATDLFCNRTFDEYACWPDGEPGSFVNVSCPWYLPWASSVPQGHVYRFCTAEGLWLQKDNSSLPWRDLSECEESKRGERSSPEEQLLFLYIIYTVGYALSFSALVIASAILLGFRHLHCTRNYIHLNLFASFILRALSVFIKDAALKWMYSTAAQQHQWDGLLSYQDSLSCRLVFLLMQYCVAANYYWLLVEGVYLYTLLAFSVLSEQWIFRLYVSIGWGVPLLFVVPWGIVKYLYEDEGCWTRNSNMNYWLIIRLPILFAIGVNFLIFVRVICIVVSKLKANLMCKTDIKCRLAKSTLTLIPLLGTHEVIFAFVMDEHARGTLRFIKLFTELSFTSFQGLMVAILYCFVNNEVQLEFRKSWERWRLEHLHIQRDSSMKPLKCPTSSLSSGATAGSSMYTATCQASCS
Compound,Potency,activation
Nc1nc(NCCO)nc(NC2CCCCC2)c1[N+](=O)[O-],"inconclusive [activator, partial curve, poor fit]",–
COC(=O)[C@@H]1CCCN1C(=O)c1cc(COc2cccc3cccnc23)on1,"inconclusive [activator, single point]",–
Cc1ccc(C(=O)COC(=O)CNC(=O)CNC(=O)c2ccc(C)cc2)cc1,inactive,–
COc1ccc2c(c1OC)C(=O)OC2N1C(=O)CC[C@H]1C(=O)Nc1ccc2c(c1)OCO2 (stereo partly drawn),inactive,–
CC1(C)Cc2c(C#N)c(N3CCN(C(=O)c4ccco4)CC3)nc(-c3ccco3)c2CS1,inactive,–
CC1(C)Cc2c(C#N)c(SCCC#N)nc(N3CCOCC3)c2CS1,"inconclusive [activator, single point]",–
CN(C)CCNC(=O)c1cccc(-c2cnc3c(NC=O)cc(-c4cccc(F)c4)cn23)c1,"inconclusive [activator, single point]",–
Cc1cc(C)c(C)c(S(=O)(=O)NCC(=O)N2CCCC2)c1C,inactive,–
CCCn1c(=O)sc2cc(NC(=O)c3ccccc3OCC)ccc21,inactive,–
COc1ccccc1OCCn1cc(/C=C(\C#N)C(=O)NCc2ccco2)c2ccccc21,"inconclusive [activator, single point]",–
CCOC(=O)CC/C(=N\NC(N)=O)c1ccc(OC)c(Cl)c1,"inconclusive [activator, partial curve, poor fit]",–
CCCCC#Cc1cncc(C(=O)N/N=C/c2ccccc2)c1,"inconclusive [activator, single point]",–
O=c1c2ccccc2nc(SCc2cn3ccsc3n2)n1-c1ccccc1,"inconclusive [activator, single point]",–
C=CC1=C(C(=O)O)N2C(=O)[C@@H](NC(=O)C(N=O)c3csc(N)n3)[C@H]2SC1 (stereo partly drawn),inactive,–
O=c1c2cn[nH]c2[nH]c(=S)n1-c1ccccc1F,inactive,–
COC(=O)C1=C2c3[nH]c4ccccc4c3CCN2C(=O)CC1,"inconclusive [activator, partial curve, poor fit]",–
CC1=Nc2cc(C(=O)NCCCOC(C)C)ccc2Sc2ccc(C)cc21,"inconclusive [activator, single point]",–
O=c1cc(N2CCCCC2)nc2n1CCCS2,"inconclusive [activator, single point]",–
COC(=O)c1cc(=O)n(-c2ccc(F)cc2)c(=Nc2ccc(F)cc2)s1,inactive,–
c1ccc(-n2ncc3c(N4CCCCC4)ncnc32)cc1,inactive,–
Cc1cc(C)nc(SCc2csc(N)n2)n1,inactive,–
O=[N+]([O-])c1ccc(COc2ccc(-c3[nH]ncc3-c3ccc(Cl)cc3)c(O)c2)cc1,inactive,–
Cc1cccnc1NC(=S)NC(=O)c1cncc(Br)c1,inactive,–
Cc1ccc(S(=O)(=O)Nc2ccc(-c3csc(-c4ccccc4)n3)cc2)cc1,inactive,–
COc1ccc(CN(C)C(=O)c2oc3ccccc3c2CSC)cc1F,"inconclusive [activator, partial curve]",–

Compound,Potency,activation
CCn1c(SCC(=O)N/N=C/c2ccc(OC)c(OC)c2)nc2ccccc21,"inconclusive [activator, partial curve]",–
Cc1ccc2c(c1)C(=O)C(=O)N2CCCOc1ccccc1,inactive,–
O=C(NCC1COc2ccccc2O1)c1cc2ccccc2o1 (stereo not drawn),"inconclusive [activator, partial curve]",–
COc1ccc(CCNC(=O)c2cc(C(=O)c3cc(C)ccc3O)cn(CCc3ccc(OC)cc3)c2=O)cc1,inactive,–
Cc1[nH]nc2c1C(c1ccc(-c3ccccc3C#N)o1)C(C#N)=C(N)O2 (stereo not drawn),inactive,–
Cc1cccc(-n2c(=S)[nH]c3c(oc4ccccc43)c2=O)c1,"inconclusive [activator, single point]",–
CCN1CCN(C(=O)CN2C(=O)c3ccccc3S2(=O)=O)CC1,inactive,–
COCC(C)n1c(SCc2ccc(OC)c(F)c2)nc2ccccc2c1=O (stereo not drawn),"inconclusive [activator, single point]",–
CC(=O)CSc1nc2c(c(=O)[nH]c(=O)n2C)n1Cc1cccc(Br)c1,"inconclusive [activator, partial curve, poor fit]",–
COc1ccccc1-c1cc(NC=O)c2ncc(-c3ccc(S(C)(=O)=O)cc3)n2c1,"inconclusive [activator, partial curve]",–
c1ccc(Cn2c(-c3cncs3)nc3ccccc32)cc1,"inconclusive [activator, partial curve, poor fit]",–
N#Cc1c(N)sc(=S)c2c1CCCC2,"inconclusive [activator, partial curve, poor fit]",–
CN(C)CCNc1oc(COc2cccc(Cl)c2)nc1C#N,inactive,–
CCC(C)c1cc(S(=O)(=O)N2CCOCC2)ccc1OC (stereo not drawn),"inconclusive [activator, partial curve, poor fit]",–
CC1CCCCN1S(=O)(=O)c1ccc(NC(=O)c2cccs2)cc1 (stereo not drawn),inactive,–
CC(=O)Nc1ccc(NC(=O)CSc2nccn2Cc2ccccc2)cc1,"inconclusive [activator, partial curve, poor fit]",–
Cn1cccc1/C=C(/C#N)c1ccc(F)cc1,"inconclusive [activator, single point]",–
COc1ccccc1Nc1nc(Cl)nc(Nc2ccccc2OC)n1,"inconclusive [activator, single point]",–
CCN1/C(=C/C(=S)Nc2ccccc2)Sc2ccccc21,"inconclusive [activator, single point]",–
O=C(O)c1cccc(CSc2ncccn2)c1,"inconclusive [activator, single point]",–
O=C(CCn1c(=O)c2ccccc2n(Cc2cccc(F)c2)c1=O)NCc1ccc2c(c1)OCO2,inactive,–
COc1ccc2nc(SCC(=O)Nc3ccccc3C#N)[nH]c2c1,"inconclusive [activator, single point]",–
COc1ccc(C(N)c2nccc3cc(OC)c(OC)cc23)cc1OC (stereo not drawn),"inconclusive [activator, partial curve]",–
CCOc1ccc(CCNC(=O)COC(=O)c2cccc(S(=O)(=O)N3CCCCC3)c2)cc1OCC,inactive,–
COc1cc2c(cc1OC)-c1cc(NC3CCCCC3)nc(=O)n1CC2,"inconclusive [activator, partial curve]",–

Compound,Potency,activation
CC1=C(C(=O)OC(C)(C)C)C(c2ccc3ccccc3c2)NC(=O)N1C (stereo not drawn),"inconclusive [activator, partial curve, poor fit]",–
COc1cc(SC)ccc1C(=O)Nc1cccc(C)n1,"inconclusive [activator, partial curve, poor fit]",–
Cc1ccsc1C(=O)C1CCCN(Cc2cc(F)ccc2-n2cccn2)C1 (stereo not drawn),inactive,–
COc1cccc(-n2c(SCC(=O)Nc3c(C)cc(C)cc3C)nc3c([nH]c4ccccc43)c2=O)c1,"inconclusive [activator, full curve, poor fit]",–
O=C(NCCc1ccccc1)c1cccnc1N1CCCCCC1,inactive,–
Cc1ccc2[nH]c(=O)c(NC(N)=S)nc2c1,inactive,–
CCOC(=O)C1CCN(C2=NC(=O)/C(=C/c3ccc(Cl)cc3)S2)CC1,inactive,–
COc1ccc(C(=O)NCC2(c3ccccc3)CCCC2)c(OC)c1,"inconclusive [activator, single point]",–
COc1ccc(C[C@H](C)NC[C@@H](O)c2ccc(O)c(NC=O)c2)cc1,–,inconclusive: 55.8% [activator]
O=C(c1n[nH]c(=O)c2ccccc12)N1CCN(Cc2ccc3c(c2)OCO3)CC1,inactive,–
COc1nccc(Nc2ccccc2)c1C#N,"inconclusive [activator, partial curve, poor fit]",–
C=C(C)COc1ccc2c(CC)cc(=O)oc2c1C,"inconclusive [activator, partial curve]",–
C/C(=N\NC(=O)c1ccc([N+](=O)[O-])cc1Cl)c1ccccc1,"inconclusive [activator, partial curve, poor fit]",–
CC1(C)CCc2cc(-c3ccn(S(=O)(=O)c4ccccc4Cl)n3)ccc2O1,–,inconclusive: 65% [activator]
Cc1oc(C(C)(C)C)cc1C(=O)N1CCN(c2ccc(C(F)(F)F)cn2)CC1,inactive,–
COc1ccc(-c2nc(C#N)c(N3CCCCCC3)o2)cc1OC,"inconclusive [activator, full curve]",–
O=C1CC(c2ccc(F)cc2)Sc2ccccc2N1 (stereo not drawn),"inconclusive [activator, partial curve, poor fit]",–
COc1cccc(-c2cnc3c(NC=O)cc(-c4ccc(N(C)C)cc4)cn23)c1,"inconclusive [activator, partial curve]",–
CCOc1nc(SCCOc2ccccc2)nc(N(C)C)n1,"inconclusive [activator, single point]",–
CC(C)OCCCNCC(O)c1ccccc1 (stereo not drawn),"inconclusive [activator, partial curve]",–
O=C(NC(=S)Nc1ccc2c(c1)OCO2)c1ccccc1,inactive,–
CC(C)CC1=NN2C(=N)/C(=C\c3coc4ccccc4c3=O)C(=O)N=C2S1,inactive,–
CC(C)NC[C@H](O)c1ccc(O)c(O)c1,"inconclusive [activator, partial curve, poor fit]",–
